Assay results from the supplement of paper PMC11876631.
± gives the standard deviation of the averaged measurements. Laboratory Escherichia coli strains with one amino-acid change in an essential protein, pooled on minimal glucose agar with carbenicillin or gentamicin at twice the control MIC (plus kanamycin and chloramphenicol for the plasmids), 48 h. Fold change of barcode share against drug-free plates; higher = less susceptible. Active = above 20 in both replicates (the paper's putatively resistant). '<' = one read or none on drug, '>' = one read or none on a drug-free plate. Shares are relative, so most strains fall below 1 when a few take over. Listed are strains with at least 15 reads on both drug-free plates, and hits; most hits rest on fewer reference reads. Replicate rank correlation about 0.5. Edits are read from barcodes.

B1: metC; numbered along this chain (parent)
chain: MADKKLDTQLVNAGRSKKYTLGAVNSVIQRASSLVFDSVEAKKHATRNRANGELFYGRRGTLTHFSLQQAMCELEGGAGCVLFPCGAAAVANSILAFIEQGDHVLMTNTAYEPSQDFCSKILSKLGVTTSWFDPLIGADIVKHLQPNTKIVFLESPGSITMEVHDVPAIVAAVRSVVPDAIIMIDNTWAAGVLFKALDFGIDVSIQAATKYLVGHSDAMIGTAVCNARCWEQLRENAYLMGQMVDADTAYITSRGLRTLGVRLRQHHESSLKVAEWLAEHPQVARVNHPALPGSKGHEFWKRDFTGSSGLFSFVLKKKLNNEELANYLDNFSLFSMAYSWGGYESLILANQPEHIAAIRPQGEIDFSGTLIRLHIGLEDVDDLIADLDAGFARIV
B2: glnA; numbered along this chain (parent)
chain: MSAEHVLTMLNEHEVKFVDLRFTDTKGKEQHVTIPAHQVNAEFFEEGKMFDGSSIGGWKGINESDMVLMPDASTAVIDPFFADSTLIIRCDILEPGTLQGYDRDPRSIAKRAEDYLRSTGIADTVLFGPEPEFFLFDDIRFGSSISGSHVAIDDIEGAWNSSTQYEGGNKGHRPAVKGGYFPVPPVDSAQDIRSEMCLVMEQMGLVVEAHHHEVATAGQNEVATRFNTMTKKADEIQIYKYVVHNVAHRFGKTATFMPKPMFGDNGSGMHCHMSLSKNGVNLFAGDKYAGLSEQALYYIGGVIKHAKAINALANPTTNSYKRLVPGYEAPVMLAYSARNRSASIRIPVVSSPKARRIEVRFPDPAANPYLCFAALLMAGLDGIKNKIHPGEAMDKNLYDLPPEEAKEIPQVAGSLEEALNELDLDREFLKAGGVFTDEAIDAYIALRREEDDRVRMTPHPVEFELYYSV
B3: proC; numbered along this chain (parent)
chain: MEKKIGFIGCGNMGKAILGGLIASGQVLPGQIWVYTPSPDKVAALHDQFGINAAESAQEVAQIADIIFAAVKPGIMIKVLSEITSSLNKDSLVVSIAAGVTLDQLARALGHDRKIIRAMPNTPALVNAGMTSVTPNALVTPEDTADVLNIFRCFGEAEVIAEPMIHPVVGVSGSSPAYVFMFIEAMADAAVLGGMPRAQAYKFAAQAVMGSAKMVLETGEHPGALKDMVCSPGGTTIEAVRVLEEKGFRAAVIEAMTKCMEKSEKLSKS
B4: pgk; numbered along this chain (parent)
chain: MSVIKMTDLDLAGKRVFIRADLNVPVKDGKVTSDARIRASLPTIELALKQGAKVMVTSHLGRPTEGEYNEEFSLLPVVNYLKDKLSNPVRLVKDYLDGVDVAEGELVVLENVRFNKGEKKDDETLSKKYAALCDVFVMDAFGTAHRAQASTHGIGKFADVACAGPLLAAELDALGKALKEPARPMVAIVGGSKVSTKLTVLDSLSKIADQLIVGGGIANTFIAAQGHDVGKSLYEADLVDEAKRLLTTCNIPVPSDVRVATEFSETAPATLKSVNDVKADEQILDIGDASAQELAEILKNAKTILWNGPVGVFEFPNFRKGTEIVANAIADSEAFSIAGGGDTLAAIDLFGIADKISYISTGGGAFLEFVEGKVLPAVAMLEERAKK
B5: pgsA; numbered along this chain (parent)
chain: MQFNIPTLLTLFRVILIPFFVLVFYLPVTWSPFAAALIFCVAAVTDWFDGFLARRWNQSTRFGAFLDPVADKVLVAIAMVLVTEHYHSWWVTLPAATMIAREIIISALREWMAELGKRSSVAVSWIGKVKTTAQMVALAWLLWRPNIWVEYAGIALFFVAAVLTLWSMLQYLSAARADLLDQ

Variants of: B1
Assay: barcode share on antibiotic plates over drug-free plates; higher = less susceptible
Details: with Escherichia coli (laboratory strain); antibiotic: gentamicin; 2× MIC (MIC 0.45 µg/mL)
Procedure: (§1)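 A pool of E. coli strains, each edited to carry one amino-acid change in an essential protein, was grown for 48 h on minimal glucose agar with or without antibiotic; strain barcodes were sequenced; mean of two replicates.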

Variant	fold change of barcode share
L105Q	0.0193 ± 0.015
L105A	< 0.0219
L105W	< 0.00906

Same assay, conditions: with Escherichia coli (laboratory strain); antibiotic: carbenicillin; 2× MIC (3.1 µg/mL)

Variant	fold change of barcode share
L105W	0.966 ± 0.72
L105D	0.326 ± 0.16

Variants of: B2
Assay: as above
Details: with Escherichia coli (laboratory strain); antibiotic: carbenicillin; 2× MIC (3.1 µg/mL)
Procedure: as §1

Variant	fold change of barcode share
L135Q	0.328 ± 0.063
L135W	0.439 ± 0.092
L135A	0.577 ± 0.1
M332A	0.367 ± 0.08
F136W	0.2905 ± 0.00044
F136Q	2.12 ± 1.8
I87D	0.609 ± 0.048
I87A	0.697 ± 0.065
I87Q	0.512 ± 0.057

Same assay, conditions: with Escherichia coli (laboratory strain); antibiotic: gentamicin; 2× MIC (MIC 0.45 µg/mL)

Variant	fold change of barcode share
L135Q	< 0.0112
L135W	0.0186 ± 0.014
L135A	< 0.0143
M332A	0.0156 ± 0.019
F136W	0.0113 ± 0.0034
I87D	< 0.00962
I87A	0.0127 ± 0.01
I87Q	0.00943 ± 0.0036

Variants of: B3
Assay: as above
Details: with Escherichia coli (laboratory strain); antibiotic: gentamicin; 2× MIC (MIC 0.45 µg/mL)
Procedure: as §1

Variant	fold change of barcode share
F68A	0.0441 ± 0.043
F151A	< 0.0121
F151W	0.0201 ± 0.0025
V93P	< 0.0145
V93W	< 0.0161
F154W	0.00787 ± 0.0057
F154D	0.00417 ± 0.001
F154P	0.0134 ± 0.014
F154A	0.0063 ± 0.00087
F154Q	0.0128 ± 0.009
V34W	0.0141 ± 0.015
V34Q	0.0101 ± 0.01
V94A	0.0476 ± 0.042
V94Q	< 0.0172
L18Q	0.0385 ± 0.048
L18P	0.0139 ± 0.0027
L18W	0.275 ± 0.38
L18A	0.0084 ± 0.00058

Same assay, conditions: with Escherichia coli (laboratory strain); antibiotic: carbenicillin; 2× MIC (3.1 µg/mL)

Variant	fold change of barcode share
V93P	0.276 ± 0.11
F154W	0.255 ± 0.14
F154D	0.348 ± 0.13
F154P	0.28 ± 0.11
F154A	0.271 ± 0.12
F154Q	0.261 ± 0.084
V34W	0.398 ± 0.052
V34Q	0.257 ± 0.045
V94A	0.353 ± 0.12
V94W	0.164 ± 0.049
V94Q	0.348 ± 0.2
V94P	0.113 ± 0.11
L18Q	0.268 ± 0.025
L18P	0.495 ± 0.16
L18W	0.455 ± 0.24
L18A	0.364 ± 0.041

Variants of: B4
Assay: as above
Details: with Escherichia coli (laboratory strain); antibiotic: carbenicillin; 2× MIC (3.1 µg/mL)
Procedure: as §1

Variant	fold change of barcode share
I188A	0.366 ± 0.059
I188W	0.383 ± 0.033
I188Q	0.527 ± 0.3
I188P	1.41 ± 0.34
L201Q	0.452 ± 0.088
L201A	0.588 ± 0.1
M138A	0.431 ± 0.018
M138D	0.244 ± 0.058
M138P	1.51 ± 0.17
V189W	0.356 ± 0.25
V213Q	0.415 ± 0.059
L204Q	0.287 ± 0.08
L204A	0.237 ± 0.0068

Same assay, conditions: with Escherichia coli (laboratory strain); antibiotic: gentamicin; 2× MIC (MIC 0.45 µg/mL)

Variant	fold change of barcode share
L201Q	< 0.00914
L201A	0.0158 ± 0.0068
M138A	0.00452 ± 0.004
M138D	0.0115 ± 0.002
V78P	0.0845 ± 0.091
V78D	0.0106 ± 0.0079
V78W	< 0.00548
V78Q	0.00544 ± 0.0021
V78A	0.0122 ± 0.0052
V189D	0.0691 ± 0.067
V189W	0.384 ± 0.44
V213Q	< 0.0188
L204P	0.0314 ± 0.026
L204W	< 0.0158
L204Q	< 0.00504
L204A	0.0306 ± 0.026

Variants of: B5
Assay: as above
Details: with Escherichia coli (laboratory strain); antibiotic: gentamicin; 2× MIC (MIC 0.45 µg/mL)
Procedure: as §1

Variant	fold change of barcode share
F12A	< 0.0114
F12Q	0.39 ± 0.53
I38D	> 355 [active]
I126D	0.0178 ± 0.0094
I126W	0.0133 ± 0.0025
I126A	< 0.00662
I126Q	0.00664 ± 0.0041
I126P	< 0.00361
V44P	244 [active]
V44W	0.275 ± 0.39
V44A	< 0.00364
V44Q	16.8 ± 21

Same assay, conditions: with Escherichia coli (laboratory strain); antibiotic: carbenicillin; 2× MIC (3.1 µg/mL)

Variant	fold change of barcode share
I126D	0.332 ± 0.15
I126W	0.406 ± 0.036
I126A	0.334 ± 0.044
I126Q	0.259 ± 0.068
I126P	0.279 ± 0.11
V44P	0.184 ± 0.059
V44W	0.18 ± 0.039
V44A	0.315 ± 0.12
V44Q	1.02 ± 1.1
